Data as given in the supplement of paper PMC8728848.
This is one part of the list.

Assays:
Test in all cases: glycan array binding signal (z-score within array); higher = stronger binding
Conditions in all cases: glycan notation: IUPAC condensed, linker removed
[1] = molecular target: Neu5Ac(a2-3)Gal(b1-3)[Neu5Ac(a2-6)]GalNAc
Outline: (§1)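 The Consortium for Functional Glycomics database supplied 3228 glycan arrays, of which those lacking an available protein sequence were dropped. The binding signal, a within-array Z-score, was averaged across arrays of the same protein sequence and across linkers. Negative scores can be read as non-binding.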

[2] = molecular target: Neu5Ac(a2-3)Gal(b1-4)Glc
Outline: as §1

[3] = molecular target: Neu5Ac(a2-3)Gal(b1-4)GlcNAc
Outline: as §1

[4] = molecular target: Neu5Ac(a2-3)Gal(b1-4)GlcNAc(b1-2)Man(a1-3)[GlcNAc(b1-2)Man(b1-4)GlcNAc(b1-2)Man(a1-6)]Man(b1-4)GlcNAc(b1-4)GlcNAc
Outline: as §1

[5] = molecular target: Neu5Ac(a2-3)Gal(b1-4)GlcNAc(b1-2)Man(a1-3)[Neu5Ac(a2-6)Gal(b1-4)GlcNAc(b1-2)Man(a1-6)]Man(b1-4)GlcNAc(b1-4)GlcNAc
Outline: as §1

[6] = molecular target: Neu5Ac(a2-3)Gal(b1-4)GlcNAc(b1-3)Gal(b1-3)GlcNAc
Outline: as §1

[7] = molecular target: Neu5Ac(a2-3)Gal(b1-4)GlcNAc(b1-3)Gal(b1-4)GlcNAc
Outline: as §1

[8] = molecular target: Neu5Ac(a2-3)Gal(b1-4)GlcNAc(b1-3)Gal(b1-4)GlcNAc(b1-3)Gal(b1-4)GlcNAc
Outline: as §1

[9] = molecular target: Neu5Ac(a2-3)Gal(b1-4)GlcNAc(b1-3)Gal(b1-4)[Fuc(a1-3)]GlcNAc
Outline: as §1

[10] = molecular target: Neu5Ac(a2-3)Gal(b1-4)GlcNAc(b1-3)GalNAc
Outline: as §1

[11] = molecular target: Neu5Ac(a2-3)Gal(b1-4)GlcNAc(b1-6)[Gal(b1-3)]GalNAc
Outline: as §1

[12] = molecular target: Neu5Ac(a2-3)Gal(b1-4)GlcNAc(b1-6)[Neu5Ac(a2-3)Gal(b1-3)]GalNAc
Outline: as §1

[13] = molecular target: Neu5Ac(a2-3)Gal(b1-4)GlcNAc6S
Outline: as §1

[14] = molecular target: Neu5Ac(a2-3)Gal(b1-4)[Fuc(a1-3)]GlcNAc
Outline: as §1

[15] = molecular target: Neu5Ac(a2-3)Gal(b1-4)[Fuc(a1-3)]GlcNAc(b1-3)Gal
Outline: as §1

[16] = molecular target: Neu5Ac(a2-3)Gal(b1-4)[Fuc(a1-3)]GlcNAc(b1-3)Gal(b1-4)GlcNAc
Outline: as §1

[17] = molecular target: Neu5Ac(a2-3)Gal(b1-4)[Fuc(a1-3)]GlcNAc(b1-3)Gal(b1-4)[Fuc(a1-3)]GlcNAc(b1-3)Gal(b1-4)[Fuc(a1-3)]GlcNAc
Outline: as §1

[18] = molecular target: Neu5Ac(a2-3)Gal(b1-4)[Fuc(a1-3)]GlcNAc(b1-3)GalNAc
Outline: as §1

[19] = molecular target: Neu5Ac(a2-3)Gal(b1-4)[Fuc(a1-3)]GlcNAc(b1-6)[Gal(b1-3)]GalNAc
Outline: as §1

[20] = molecular target: Neu5Ac(a2-3)Gal(b1-4)[Fuc(a1-3)]GlcNAc(b1-6)[Neu5Ac(a2-3)Gal(b1-3)]GalNAc
Outline: as §1

[21] = molecular target: Neu5Ac(a2-3)Gal(b1-4)[Fuc(a1-3)]GlcNAc6S
Outline: as §1

[22] = molecular target: Neu5Ac(a2-3)Gal6S(b1-4)GlcNAc
Outline: as §1

[23] = molecular target: Neu5Ac(a2-3)Gal6S(b1-4)[Fuc(a1-3)]GlcNAc
Outline: as §1

[24] = molecular target: Neu5Ac(a2-3)GalNAc
Outline: as §1

[25] = molecular target: Neu5Ac(a2-3)GalNAc(b1-4)GlcNAc
Outline: as §1

[26] = molecular target: Neu5Ac(a2-3)[GalNAc(b1-4)]Gal(b1-4)Glc
Outline: as §1

[27] = molecular target: Neu5Ac(a2-3)[GalNAc(b1-4)]Gal(b1-4)GlcNAc
Outline: as §1

[28] = molecular target: Neu5Ac(a2-3)[GalNAc(b1-4)]Gal(b1-4)GlcNAc(b1-3)GalNAc
Outline: as §1

[29] = molecular target: Neu5Ac(a2-3)[Neu5Ac(a2-6)]GalNAc
Outline: as §1

[30] = molecular target: Neu5Ac(a2-6)Gal
Outline: as §1

[31] = molecular target: Neu5Ac(a2-6)Gal(b1-4)Glc
Outline: as §1

[32] = molecular target: Neu5Ac(a2-6)Gal(b1-4)GlcNAc
Outline: as §1

[33] = molecular target: Neu5Ac(a2-6)Gal(b1-4)GlcNAc(b1-2)Man(a1-3)Man(b1-4)GlcNAc(b1-4)GlcNAc
Outline: as §1

[34] = molecular target: Neu5Ac(a2-6)Gal(b1-4)GlcNAc(b1-2)Man(a1-3)[Gal(b1-4)GlcNAc(b1-2)Man(a1-6)]Man(b1-4)GlcNAc(b1-4)GlcNAc
Outline: as §1

[35] = molecular target: Neu5Ac(a2-6)Gal(b1-4)GlcNAc(b1-2)Man(a1-3)[GlcNAc(b1-2)Man(a1-6)]Man(b1-4)GlcNAc(b1-4)GlcNAc
Outline: as §1

[36] = molecular target: Neu5Ac(a2-6)Gal(b1-4)GlcNAc(b1-2)Man(a1-3)[GlcNAc(b1-2)Man(b1-4)GlcNAc(b1-2)Man(a1-6)]Man(b1-4)GlcNAc(b1-4)GlcNAc
Outline: as §1

B1: Mincle (Homo sapiens), Q9ULY5 (protein)
chain: MNSSKSSETQCTERGCFSSQMFLWTVAGIPILFLSACFITRCVVTFRIFQTCDEKKFQLPENFTELSCYNYGSGSVKNCCPLNWEYFQSSCYFFSTDTISWALSLKNCSAMGAHLVVINSQEEQEFLSYKKPKMREFFIGLSDQVVEGQWQWVDGTPLTKSLSFWDVGEPNNIATLEDCATMRDSSNPRQNWNDVTCFLNYFRICEMVGINPLNKGKSL
glycan array binding signal (z-score) [1]: -0.315
glycan array binding signal (z-score) [2]: -0.335
glycan array binding signal (z-score) [3]: -0.149
glycan array binding signal (z-score) [4]: 3.33
glycan array binding signal (z-score) [5]: 2.53
glycan array binding signal (z-score) [6]: -0.067
glycan array binding signal (z-score) [7]: -0.667
glycan array binding signal (z-score) [8]: -0.085
glycan array binding signal (z-score) [9]: -0.372
glycan array binding signal (z-score) [10]: -0.53
glycan array binding signal (z-score) [11]: -0.344
glycan array binding signal (z-score) [12]: -0.18
glycan array binding signal (z-score) [13]: 0.158
glycan array binding signal (z-score) [14]: 0.028
glycan array binding signal (z-score) [15]: -0.49
glycan array binding signal (z-score) [16]: 0.445
glycan array binding signal (z-score) [17]: -0.324
glycan array binding signal (z-score) [18]: 2.37
glycan array binding signal (z-score) [19]: 0.075
glycan array binding signal (z-score) [20]: -0.443
glycan array binding signal (z-score) [21]: -0.464
glycan array binding signal (z-score) [22]: -0.192
glycan array binding signal (z-score) [23]: -0.014
glycan array binding signal (z-score) [24]: -0.016
glycan array binding signal (z-score) [25]: -0.219
glycan array binding signal (z-score) [26]: -0.338
glycan array binding signal (z-score) [27]: -0.034
glycan array binding signal (z-score) [28]: -0.428
glycan array binding signal (z-score) [29]: -0.51
glycan array binding signal (z-score) [30]: 0.075
glycan array binding signal (z-score) [31]: -0.181
glycan array binding signal (z-score) [32]: -0.428
glycan array binding signal (z-score) [33]: -0.439
glycan array binding signal (z-score) [34]: 2.2
glycan array binding signal (z-score) [35]: 1.35
glycan array binding signal (z-score) [36]: 1.17
